Changes are numbered by the printed parent chain. Recombinant human monoclonal antibodies (heavy:light variable regions). ELISA EC50 on the named antigen, from 10 µg/ml down; IC50 / IC90 against spike pseudovirus on 293T-ACE2 cells, 48 h; lower = stronger. Calls: IC50 above 1,000 ng/ml = non-neutralizing; EC50 above 2,000 ng/ml = non-binder. The source prints 1000 for neutralization that was not reached; it is given as >1000 ng/ml. A few antibodies were first reported in earlier work of the same group.
B1: C1406 (protein)
chain 1: QVQLVQSGAEVKKPGASVKVSCKASGYTFTSYYMHWVRQAPGQGLEWMGIINPSGGSTTYAQRFQGRVTMTRDTSTRTVYMELSSLRSEDTAVYYCARDIAGVPAAIGCEYWGQGTLVTVSS
chain 2: DIQLTQSPSSLSASVGDRVTITCRTSQTITSYLNWYQQKPGKAPKLLIYAASSLQSGVPSRFSGSGSGTDFTLTINNLQPEDFATYYCQQSYRTPRFTFGPGTKVDIK
B2: C1410 (protein)
chain 1: QVQLQESGPGLVKPSGTLSLTCTVSGGSIDSRDWWAWVRQPPGKGLEWIGEIYFTGSTNYNPSLKSRVTISLDNSKTQFSLNLTSVTAADTAVYYCARVALWGINLPSYFSRGFDIWGQGTMVTVSS
chain 2: QSVLTQPPSASGTPGQRVTISCSGSSSNIGSYSVSWYQQFPGTAPKLLIHKNNQRPSGVPDRFSGSKSGTSASLAISGLRSEDEADYYCAAWDDSLSGPNWVFGGGTKVTVL
B3: C2154 (protein)
chain 1: QVQLVQSGAEVKKPGSSVKVSCKASGGTFSNYAFNWVRQGPGQGLEWMGGIIPVFVTPLYAQKFEGRVTITADRSTTTVYMELIGLRSEDTAVYYCARETRGFGDLFGKGYFYYSGMDVWGQGTTVTVSS
chain 2: QSALTQPASVSGSPGQSITISCTGTNRDVGGYNYVSWYQHRPGGAPKLIIFEVTNRPSGVSSRFSGSKSGSTASLTISGLQSEDEADYYCSSYRDTNTRVFGGGTKLTVL
B4: C1413 (protein)
chain 1: EVQLVESGGGLVQPGGSLRLSCAASGFTFSSYNMNWVRQAPGKGLEWVSYISGTSTTIYYADSVQGRFTISRDNAKNSLYLQMNSLRDEDTAVYYCARGLGPKSYYYYGMDVWGQGTTVTVSS
chain 2: DIQLTQSPSSLSASVGDRVNIACRASQSIASYLSWYQQKPGKAPKLLISGASSLQGGVPSRFSGSGSGTDFTLTISGLQPEDFATYYCQQTYSTPQVFGQGTKLEIK
B5: C1414 (protein)
chain 1: QVQLQESGPGLVKPSETLSLTCNVSGGSISSYYWSWIRQPPGKGLEWIGYIYYSGSTNYNPSLKSRVIISVDTSKKQFSLKLSSVTAADTAVYYCARHYDSSGYTYNWFDPWGQGTLVTVSS
chain 2: QSVLTQPPSVSGAPGQRVTISCTGSSSNIGAGFDVHWYQQLPGTAPKLLIYGNSNRPSGVPDRFSGSKSGTSASLAITGLQAEDEADYYCQSYDSSLSSLVFGGGTKLTVL
B6: C2155 (protein)
chain 1: EVQLVESGGGLVQPGGSLRLSCAASGFTFSSYWMHWVRQAPGKGLVWVSRINSDGSSTSYADSVKGRFTISRDNAKNTLYLQMNSLRAEDTAVYYCARGQYAFGDFDYWGQGTLVTVSS
chain 2: QSALTQPPSASGSPGQSVTISCTGTSSDVGGYNYVSWYQQHPGKAPKLMIYEVSKRPSGVPDRFSGSKSGNTASLTVSGLQAEDEADYYCSSYAGKDVVFGGGTKLTVL
B7: C2156 (protein)
chain 1: QVQLVQSGAEVKKPGASVKVSCKASGYTFTSYYMHWVRQAPGQGLEWMGIINPSGGSTSYAQKFQGRVTMTRDTSTSTVYMELSSLRSEDTAVYYCARDIVVVPAKNAFDIWGQGTMVTVSS
chain 2: EIVLTQSPATLSLSPGERATLSCRASQSVSSYLAWYQQKPGQAPRLLIYDASNRATGIPARFSGSGSGTDFTLTISSLEPEDFAVYYCQQRSNWPLYTFGQGTKLEIK
B8: C2307 (protein)
chain 1: QVQLVQSGAEVKKPGASVKVSCKASGYTFTSYGISWVRQAPGQGLEWMGWISAYNGNTNYAQKLQGRVTMTTDTSTSTAYMELRSLRSDDTAVYYCARASGFMVRGVNPNYYYYMDVWGKGTTVTVSS
chain 2: QSALTQPASVSGSPGQSITISCTGTSSDVGSYNLVSWYQQHPGKAPKLMIYEGSKRPSGVSNRFSGSKSGNTASLTISGLQAEDEADYYCCSYAGSSTWVFGGGTKLTVL
B9: C2009 (protein)
chain 1: QVQLQQWGTGLLKPSETLSLTCAVYGGSFSGYYWSWIRQPPGKGLEWIGDINHSGATNDNPSLKSRVTISVDTSKSQFSLQLSSVTAADTAVYYCARGIKEGADSLYGFWSGARPPAYYYAMDVWGQGTTVTVSS
chain 2: IRMTQSPSSLSASVEDRVTITCRASQDISNYLAWFQQKPGKAPKSLIYAASSLQSGVPSKFSGSGSGTDFTLTISSLQPEDFATYYCLQYYTYPLTFGGGTKVEIK
B10: C2308 (protein)
chain 1: EVQLVESGGGLVQPGGSLRLSCAASGFTVSSNYMSWVRQAPGKGLEWVSVIYSGGSTYYADSVKGRFTISRDNSKNTLYLQMNSLRAEDTAVYYCARDLVVRGTSYWGQGTLVTVSS
chain 2: not shown
B11: C2309 (protein)
chain 1: EVQLVQSGAEVKKPGESLKISCKGSGYNFTSYWIGWVRQMPGKGLEWMGIICPGDSDTRYSPSFQGQVTISADKSISTAYLQWSSLKASDTAMYYCAIAKYMYYDILTGYYNDGWSFDPWGQGTLVTVSS
chain 2: QSALTQPASVSGSPGQSITISCTGTSSDVGGYNYVSWYQQHPGKAPKLMISEVSNRPSGVSNRFSGSKSGNTASLTISGLQSEDEADYYCSSYTSSSTLGVFGGGTKLTVL
B12: C2311 (protein)
chain 1: EVQLVESGGGLVQPGRSLRLSCAASGFTFDDYAMHWVRQAPGKGLEWVSGISWNSGSIGYADSVKGRFTISRDNAKNSLYLQMNSLRAEDTALYYCAKAHVDTAMVKGPFWFDPWGQGTLVTVSS
chain 2: EIVMTQSPATLSVSPGERATLSCRASQSVSSNLAWYQQKPGQAPRLLIYGASTRATGIPARFSGSGSGTEFTLTISSLQSEDFAVYYCQQYNNWPPGITFGQGTRLEIK
B13: C2331 (protein)
chain 1: QVQLVQSGAEVKKPGASVKVSCKASGYTFTSYDINWVRQATGQGLEWMGWMNPNSGNTAYAQKFQGRVTITRNTSISTAYMELSSLRSEDTAVYYCARGTYCSTTICYTRDWFDPWGQGTLVTVSS
chain 2: SYELTQPPSVSVAPEQTARITCGGNNIGSKSVHWYQQKPGQAPVLVVYDDSDRPSGIPERFSGSNSGNTATLTISRVEAGDEADYYCQVWDSSSDPHYVFGTGTKVTVL
B14: C2319 (protein)
chain 1: EVQLVESGGGLIQPGGSLRLSCAASVFTVSSNYMSWVRQAPGKGLEWVSVIYSGGSTFYADSVKGRFTISRDNSKNTLYLQMNSLRAEDTAVYYCARDYGDFYFDYWGRGTLVTVSS
chain 2: not shown
B15: C2328 (protein)
chain 1: EVQLVESGGGLIQPGGSLRLSCAASGFTVSSSYMHWVRQAPGKGLEWISVIYSSGNTFSPDSMKGRFTISRDNSKNMVYLHMDSLRVEDTAVYYCARGHCSTTSCFRDGQDVWGQGTTVTVSS
chain 2: DIQLTQSPSSLSASVGDRVTITCRASQTIDGYLNWYQQKPGKAPRLLIYAASSLQSGVPSRFSGSGSGTDFTLTISSLQPEDFATYYCQQSYNTLSFGGGTKVEIK
B16: C2329 (protein)
chain 1: B8 chain 1 with A9D, Y32H
chain 2: B8 chain 2
B17: C2318 (protein)
chain 1: B10 chain 1 with Y58F, N83D
chain 2: not shown

The binders below were run against SARS-CoV-2 Wuhan-Hu-1 spike pseudovirus (assay: pseudovirus neutralization IC50; higher = weaker neutralization).
Description: (§1)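 Single-round luciferase reporter pseudovirus mixed with antibody dilutions and put on 293T-ACE2 cells for 48 h; signal relative to no-antibody wells, four-parameter fit.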

| Binder | pseudovirus neutralization IC50 |
| --- | --- |
| B1 | > 1 µg/mL |
| B2 | 0.0174 µg/mL |
| B3 | > 1 µg/mL |
| B4 | > 1 µg/mL |
| B5 | 0.00198 µg/mL |
| B6 | > 1 µg/mL |
| B7 | > 1 µg/mL |
| B8 | 0.0964 µg/mL |
| B9 | > 1 µg/mL |
| B10 | 0.289 µg/mL |
| B11 | > 1 µg/mL |
| B12 | > 1 µg/mL |
| B13 | > 1 µg/mL |
| B14 | 0.0048 µg/mL |
| B15 | 0.503 µg/mL |
| B16 | 0.00568 µg/mL |
| B17 | 0.116 µg/mL |

Each binder was assayed against SARS-CoV-2 Wuhan-Hu-1 spike pseudovirus (assay: pseudovirus neutralization IC90; higher = weaker neutralization).
Description: as §1

| Binder | pseudovirus neutralization IC90 |
| --- | --- |
| B1 | > 1 µg/mL |
| B2 | 0.162 µg/mL |
| B3 | > 1 µg/mL |
| B4 | > 1 µg/mL |
| B5 | 0.0308 µg/mL |
| B6 | > 1 µg/mL |
| B7 | > 1 µg/mL |
| B8 | 0.729 µg/mL |
| B9 | > 1 µg/mL |
| B10 | > 1 µg/mL |
| B11 | > 1 µg/mL |
| B12 | > 1 µg/mL |
| B13 | > 1 µg/mL |
| B14 | 0.0358 µg/mL |
| B15 | > 1 µg/mL |
| B16 | 0.0607 µg/mL |
| B17 | 0.684 µg/mL |

The binders below were run against SARS-CoV-2 Wuhan-Hu-1 spike receptor-binding domain (assay: ELISA binding EC50; higher = weaker binding; ELISA of recombinant human antibody on coated antigen, from 10 µg/ml in fourfold dilutions; four-parameter fit.).

| Binder | ELISA binding EC50 |
| --- | --- |
| B1 | 0.00272 µg/mL |
| B2 | 0.00284 µg/mL |
| B3 | 0.00204 µg/mL |
| B4 | 0.0025 µg/mL |
| B5 | 0.00326 µg/mL |
| B6 | > 10 µg/mL |
| B7 | 0.0198 µg/mL |
| B8 | 0.00256 µg/mL |
| B9 | > 10 µg/mL |
| B10 | 0.00655 µg/mL |
| B11 | 0.0106 µg/mL |
| B12 | 0.00331 µg/mL |
| B13 | 0.00296 µg/mL |
| B14 | 0.00279 µg/mL |
| B15 | 0.00182 µg/mL |
| B16 | 0.00201 µg/mL |
| B17 | 0.00265 µg/mL |

— the supplement of paper PMC8674133
